The supplement of paper PMC10670038
Structures can show the parent of a compound that is named as a salt. ± gives the standard deviation of the averaged measurements. Over roughly 2,000 compounds, “relative cell viability vs DMSO, compound + 0.2 uM CuET” has its median near 1; the lowest 2% begin near 0.25. This is one part of the list.

tested on: TE10; test: relative cell viability vs DMSO, compound + 0.2 uM CuET (fraction); TE10 is an esophageal squamous carcinoma line; higher = less cytotoxic; conditions: 2 µM; co-treatment: CuET (bis(diethyldithiocarbamate)copper) 0.2 uM; 48 h
Experimental: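 TE10 ESCC cells (1,000/well, 384-well plates) were treated with Selleck bioactive library compounds at 2 uM combined with 0.2 uM CuET (copper diethyldithiocarbamate) for 48 h. Viability was read by CellTiter-Glo and expressed relative to DMSO wells. Two technical replicates (A, B).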

| Compound | relative cell viability |
| --- | --- |
| COc1ccc(S(=O)(=O)N(C(C)=O)c2ccccc2/C=C/c2cc[n+]([O-])cc2)cc1 | 1.1 ± 0.082 |
| CC[C@H]1OC(=O)[C@H](C)[C@@H](O[C@H]2C[C@@](C)(OC)[C@@H](O)[C@H](C)O2)[C@H](C)[C@@H](O[C@@H]2O[C@H](C)C[C@H](N(C)C)[C@H]2O)[C@](C)(O)C[C@@H](C)[C@@H]2N[C@@H](COCCOC)O[C@H]([C@H]2C)[C@]1(C)O [Dirithromycin] | 1.0283 ± 0.00083 |
| O=C1CC2(CCCC2)CC(=O)N1CCCCN1CCN(c2ncccn2)CC1 [Buspirone HCl] | 1.14 ± 0.087 |
| CC(C)c1cc(-c2ccc(F)c3ccccc23)nc(N)n1 | 1.46 ± 0.44 |
| O=C(NOC[C@H](O)CO)c1ccc(F)c(F)c1Nc1ccc(I)cc1F | 1.1 ± 0.053 |
| Cc1cc(C)c(/C=C2\C(=O)Nc3ccccc32)[nH]1 [Semaxanib (SU5416)] | 1.17 ± 0.37 |
| CCN=C1N[C@@H]2[C@@H](O)[C@H](O)[C@@H](CO)O[C@@H]2S1 [Thiamet G] | 1.16 ± 0.065 |
| CC(=O)Nc1ncc([N+](=O)[O-])s1 [Nithiamide] | 1.49 ± 0.068 |
| CNc1cccc(CCOc2ccc3c(c2)CN(CC(F)(F)F)C(=O)[C@H](CC(=O)O)C3)n1 | 1.04 ± 0.12 |
| CCCCCCCCCCCCCCCC(=O)O[C@@H]1[C@@H](O)[C@@H](O)[C@@H]([C@H](NC(=O)[C@@H]2C[C@@H](CCC)CN2C)[C@H](C)Cl)O[C@@H]1SC [Clindamycin palmitate HCl] | 1.33 ± 0.12 |
| CN1CCN(CCOc2cc(OC3CCOCC3)c3c(Nc4c(Cl)ccc5c4OCO5)ncnc3c2)CC1 [Saracatinib (AZD0530)] | 0.565 ± 0.34 |
| CCOCC(O)COc1ccc(NC(=O)CC[S+](C)C)cc1 (stereo not given) [Suplatast Tosylate] | 0.922 ± 0.026 |
| CC1Cc2ccccc2N1NC(=O)c1ccc(Cl)c(S(N)(=O)=O)c1 (stereo not given) [Indapamide] | 0.9492 ± 0.0029 |
| O=C(/C=C\n1cnc(-c2cc(C(F)(F)F)cc(C(F)(F)F)c2)n1)NNc1ccccn1 [Verdinexor (KPT-335)] | 0.294 ± 0.0026 |
| C=CC(=O)Nc1ccc2ncnc(Nc3cccc(Br)c3)c2c1 | 0.79 ± 0.068 |
| CCC(=O)c1c(O)cc(O)cc1O [Flopropione] | 1.13 ± 0.052 |
| COc1ccccc1S(=O)(=O)Nc1ccc2c(c1)CN(C)C(=O)N2 | 0.852 ± 0.051 |
| FC(F)c1nc2ccccc2n1-c1nc(N2CCOCC2)nc(N2CCOCC2)n1 | 0.6535 ± 0.0037 |
| Cc1nnc(NS(=O)(=O)c2ccc(N)cc2)s1 [Sulfamethizole] | 1.07 ± 0.011 |
| CC(C)Oc1ccc(C(=O)N[C@H](CNC(=O)CN(C)C)Cc2ccc(-c3cn4cccc([C@H](C)O)c4n3)cc2)cc1Cl | 0.963 ± 0.046 |
| C[C@@H]1C[C@H]2[C@@H]3CCC4=CC(=O)C=C[C@]4(C)[C@@]3(F)[C@@H](O)C[C@]2(C)[C@@]1(O)C(=O)CO [Dexamethasone (DHAP)] | 1.17 ± 0.09 |
| OC1(c2ccc(Cl)c(C(F)(F)F)c2)CCN(CCCC(c2ccc(F)cc2)c2ccc(F)cc2)CC1 [Penfluridol] | 0.252 ± 0.037 |
| CC1(C)O[C@@H]2C[C@H]3[C@@H]4CCC5=CC(=O)C=C[C@]5(C)[C@@]4(F)[C@@H](O)C[C@]3(C)[C@]2(C(=O)CO)O1 [Triamcinolone Acetonide] | 1.11 ± 0.15 |
| Cc1cnc(NC(=O)C2=C(O)c3ccccc3S(=O)(=O)N2C)s1 [Meloxicam] | 1.06 ± 0.14 |
| O=C(O)CCCc1ccccc1 [Sodium Phenylbutyrate] | 1.104 ± 0.0058 |

| Compound | relative cell viability |
| --- | --- |
| CCOc1nc2cccc(C(=O)O)c2n1Cc1ccc(-c2ccccc2-c2noc(=O)[nH]2)cc1 [Azilsartan] | 1.17 ± 0.24 |
| COCCOC(=O)C1=C(C)NC(C)=C(C(=O)OC/C=C/c2ccccc2)C1c1cccc([N+](=O)[O-])c1 (stereo not given) [Cilnidipine] | 1.08 ± 0.031 |
| Cc1cc([C@@H](C)Nc2ccccc2C(=O)O)c2nc(N3CCOCC3)cc(=O)n2c1 | 0.873 ± 0.074 |
| Cc1cc(C)cc(C(=O)NOCCCCCC(=O)NO)c1 | 0.23 ± 0.02 |
| O=c1c(-c2ccc(O)cc2)coc2c([C@@H]3O[C@H](CO)[C@@H](O)[C@H](O)[C@H]3O)c(O)ccc12 [Puerarin] | 1.158 ± 0.004 |
| CNC(=O)c1cc(COc2nnc(Nc3ccc(Cl)cc3)c3ccoc23)ccn1 [Telatinib] | 0.811 ± 0.0084 |
| CCCc1nc(C)c2c(=O)nc(-c3cc(S(=O)(=O)N4CCN(CC)CC4)ccc3OCC)[nH]n12 [Vardenafil HCl Trihydrate] | 1.1 ± 0.062 |
| O=C(O)/C=C/c1ccc(Cn2ccnc2)cc1 [Ozagrel] | 1.11 ± 0.059 |
| O=C(O)/C=C/c1ccc(Cn2ccnc2)cc1 [Ozagrel HCl] | 1.08 ± 0.076 |
| COc1cc2nccc(Oc3ccc(NC(=O)C4(C(=O)Nc5ccc(F)cc5)CC4)cc3)c2cc1OC [Cabozantinib malate (XL184)] | 1.09 ± 0.019 |
| COc1cc2nccc(Oc3ccc(NC(=O)C4(C(=O)Nc5ccc(F)cc5)CC4)cc3)c2cc1OC | 0.916 ± 0.28 |
| CNC(=O)[C@H](Cc1c[nH]c2ccccc12)NC(=O)[C@@H](CC(=O)NO)CC(C)C [Ilomastat (GM6001, Galardin)] | 1.09 ± 0.16 |
| C[C@H]1C[C@H]2[C@@H]3CCC4=CC(=O)C=C[C@]4(C)[C@@]3(F)[C@@H](O)C[C@]2(C)[C@@]1(O)C(=O)CO [Betamethasone] | 1.331 ± 0.011 |
| Oc1ccc(OCc2ccccc2)cc1 [Monobenzone] | 0.91 ± 0.0097 |
| Cc1cc(/N=N/c2ccc(S(=O)(=O)Nc3ccccn3)cc2)c(N)cc1O | 0.883 ± 0.028 |
| COc1cc(O)c(CC=C(C)C)c(O)c1C(=O)/C=C/c1ccc(O)cc1 [Xanthohumol] | 0.786 ± 0.024 |
| O=C(NCCO[N+](=O)[O-])c1cccnc1 [Nicorandil] | 1.054 ± 0.0074 |
| Cc1ccc(Cl)c(Nc2ccccc2C(=O)O)c1Cl [Meclofenamate Sodium] | 0.9947 ± 0.0029 |
| CN(C)CCOc1ccc(/C(=C(/CCCl)c2ccccc2)c2ccccc2)cc1 [Toremifene Citrate] | 0.893 ± 0.087 |
| CCN1CCN(C(=O)N[C@@H](C(=O)N[C@@H]2C(=O)N3C(C(=O)O)=C(CSc4nnnn4C)CS[C@H]23)c2ccc(O)cc2)C(=O)C1=O [Cefoperazone] | 1.02 ± 0.065 |
| O=C(c1cn(Cc2cncn2Cc2ccc(Br)cc2)cc1-c1cccc2ccccc12)N1CCOCC1 | 0.857 ± 0.025 |
| CC(C)(Cc1ccc2ccccc2c1)NC[C@@H](O)COc1cccc(Cl)c1C#N | 0.693 ± 0.097 |
| O=C1Nc2ccc(I)cc2C1=Cc1cc(Br)c(O)c(Br)c1 | 1.08 ± 0.22 |
| N#Cc1ccc(-c2c(-c3ncn[nH]3)sc(N3CCOCC3)c2C#N)c(F)c1 | 0.713 ± 0.082 |
| Cn1c(=O)cc(N2CCC[C@@H](N)C2)n(Cc2cc(F)ccc2C#N)c1=O [Trelagliptin] | 1.17 ± 0.22 |

| Compound | relative cell viability |
| --- | --- |
| CC(C)(C)c1[nH]cnc1/C=c1\[nH]c(=O)/c(=C/c2ccccc2)[nH]c1=O [Plinabulin (NPI-2358)] | 0.753 ± 0.058 |
| Cc1c(-c2ccnn2C)cc(C(=O)NCc2ccc(S(C)(=O)=O)cn2)c(=O)n1-c1cccc(C(F)(F)F)c1 [Alvelestat (AZD9668)] | 0.993 ± 0.044 |
| CCCNC(C)C(=O)Nc1ccccc1C (stereo not given) [Prilocaine] | 1.01 ± 0.051 |
| Nc1ncn([C@@H]2O[C@H](CO)[C@@H](O)[C@H]2O)c(=O)n1 [Azacitidine] | 1.11 ± 0.15 |
| CC(COc1ccccc1)N(CCCl)Cc1ccccc1 (stereo not given) [Phenoxybenzamine HCl] | 1.07 ± 0.07 |
| CC(=O)Nc1cccc2c1c(Sc1ccc(Cl)cc1)c(C)n2CC(=O)O | 1.18 ± 0.12 |
| O=C(Nc1ccc(OC(F)(F)F)cc1)c1sccc1NCc1ccnc2ccccc12 | 1.23 ± 0.045 |
| COc1cc(/C=C/C(=O)N2CCN(CC(=O)N3CCCC3)CC2)cc(OC)c1OC [Cinepazide maleate] | 1.22 ± 0.016 |
| C/C=C1/[C@H](O[C@@H]2O[C@H](CO)[C@@H](O)[C@H](O)[C@H]2O)OC=C(C(=O)OC)[C@H]1CC(=O)OCCc1ccc(O)c(O)c1 [Oleuropein] | 1.05 ± 0.018 |
| Cc1cc(=O)oc2cc(O)ccc12 [4-Methylumbelliferone (4-MU)] | 1.23 ± 0.043 |
| COc1cccc(-c2ccc(NC(=O)C3=C(C(=O)O)CCC3)c(F)c2)c1 [Vidofludimus] | 1.08 ± 0.041 |
| Clc1cccc(-c2nnnn2Cc2cccnc2)c1Cl | 1.17 ± 0.056 |
| COc1ccc(C(=O)CC2(O)C(=O)Nc3c(Cl)ccc(Cl)c32)cc1 (stereo not given) | 0.97 ± 0.18 |
| O=C(NC1CCN(CCCCC2(C(=O)NCC(F)(F)F)c3ccccc3-c3ccccc32)CC1)c1ccccc1-c1ccc(C(F)(F)F)cc1 [Lomitapide] | 1.01 ± 0.13 |
| O=C(NC1CCN(CCCCC2(C(=O)NCC(F)(F)F)c3ccccc3-c3ccccc32)CC1)c1ccccc1-c1ccc(C(F)(F)F)cc1 [Lomitapide Mesylate] | 0.684 ± 0.065 |
| CCCN[C@H]1CCc2nc(N)sc2C1 [Pramipexole dihydrochloride monohydrate] | 0.998 ± 0.074 |
| CCCN[C@H]1CCc2nc(N)sc2C1 [Pramipexole] | 1.1 ± 0.087 |
| CC(C)(C)Cn1c(N)nc2ccc(-c3[nH]c(C(C)(C)C)nc3-c3ccc(F)cc3)nc21 | 1.34 ± 0.083 |
| COC1=C(OC)C(=O)C(CCCCCCCCCCO)=C(C)C1=O [Idebenone] | 0.993 ± 0.16 |
| Cc1nc(NC(=O)N2CCC[C@H]2C(N)=O)sc1-c1csc(C(C)(C)C)n1 | 0.73 ± 0.077 |
| O=C(Nc1c[nH]nc1-c1nc2ccc(CN3CCOCC3)cc2[nH]1)NC1CC1 | 0.913 ± 0.097 |
| CCOC(=O)[C@H](CCc1ccccc1)N[C@H]1CCc2ccccc2N(CC(=O)O)C1=O [Benazepril HCl] | 1.1 ± 0.14 |
| CC(C)[C@H]1C(=O)N[C@@H](CCCNC(=N)N)C(=O)NCC(=O)N[C@@H](CC(=O)O)C(=O)N[C@H](Cc2ccccc2)C(=O)N1C [Cilengitide] | 0.929 ± 0.065 |
| O=C(c1cccc(Cl)c1F)N1CCN(Cc2cccc(Nc3nccs3)n2)CC1 | 1.121 ± 0.0073 |
| COc1cc(OC)c2c(=O)[nH]c(-c3cc(C)c(OCCO)c(C)c3)nc2c1 | 0.819 ± 0.058 |
